The supplement of paper PMC11417369
The other results are listed elsewhere or left out.

Tested on: PfAP2-HC AP2 domain (GST-tagged)
Assay: gcPBM binding intensity (ln(normalized median fluorescence intensity)); higher = stronger DNA binding
Procedure, shortened: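 Binding intensity values are the highest Masliner-normalised natural-log median intensity among replicate spots of either probe orientation. The binding step lasted 1 h in 1× PBS with 1% milk, 0.2 mg/ml BSA, 0.5% salmon testes DNA and 0.03% Triton X-100, using GST-tagged P. falciparum DNA-binding domains expressed in E. coli on an Agilent 4 × 180k array of primer-extended double-stranded 36-bp intergenic genomic probes plus negative controls. Alexa488 anti-GST antibody and a 488 nm scan detected bound protein.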

Row | Sequence | gcPBM binding intensity (ln)
1 | AAAAATCGATACAAGCGTACAAAATAAAATAAAAAT [XGTACX_site5546] | 9.83
2 | TTACACATATTATATATATATAAAAAAAAAAAATAT [CACACA_negctrl_site1684] | 9.69
3 | TAAATTGAGTATATTACACACATATAAATATATTAT [CACACA_site4027] | 9.77
4 | TATATATATATATGTATATATGTATATCTATATTTA [CACACA_negctrl_site131] | 9.57
5 | TCTTATCCTACTTTTATTTTTACTTTTTTTTCTTAT [CACACA_negctrl_site111] | 9.89
6 | TGGATTCGTATATGTAGTACTATTTATATGTGATTT [XGTACX_site1581] | 9.71
7 | ATATATATATATATATGTACATAATTAATAATTAGA [XGTACX_site5672] | 9.77
8 | AAGTGTATATAAAAATGTACATATTTCGATTTAAAT [XGTACX_site4161] | 9.72
9 | AATATATACCAACATAAATATATATATATATATATA [TGCATGCA_negctrl_site334] | 10.2
10 | TAATAAATATATAATTGTACTTAAAAGAATATAAAA [XGTACX_site2928] | 9.34
11 | TTAATATTTACAAAATGTACAGATTATTTATTGTTG [XGTACX_site1270] | 9.67
12 | AAATATGTCAAATATACACACATAATAACTAGAATA [CACACA_site7151] | 10.1
13 | AATAATTATAATAAGGGTACGTATCTCACAGGAAAA [XGTACX_site4187] | 9.83
14 | TTTTTTAATATTTATACATGCATGCCGATTACTATA [TGCATGCA_site26] | 9.87
15 | TTAATTTGTAAATAATGTACATATAAATGGAAAGTA [XGTACX_site2743] | 9.73
16 | TATTTATTAAAACACACACACACACCGACAAAATAA [CACACA_site4293] | 10.5
17 | TAATAAAACATATATACACACATTATGTATACATAT [CACACA_site1703] | 9.94
18 | ACAATACAAATATATACACACATACATACATACATA [CACACA_site5699] | 10.4
19 | AAAACATTATTCCATACACACCATACTTTTTAATAA [CACACA_site7326] | 9.85
20 | TAAAATATTATCTACGCACACATTAAAATAAAAAAA [CACACA_site3709] | 9.84
21 | CATTTGCACACGCACACACACATAAAAAGAAAAATA [CACACA_site6297] | 11.1
22 | ATAAAGAAAAGGAACACACAAATATGTAAATATGTA [CACACA_site6356] | 10.1
23 | TTACACATAAATACCATATAAATATAATGCATATCT [CACACA_negctrl_site1731] | 9.66

Row | Sequence | gcPBM binding intensity (ln)
24 | AATAATAAACACAATCAAATAAAATATGAAATATAA [GTGCAC_negctrl_site307] | 9.94
25 | CCCTGAGCACTTTCGTGTACTAATAGTAACAATAAT [XGTACX_site1418] | 9.52
26 | AAATGTTGAAATGATACACACATATAAATATAAATA [CACACA_site7229] | 9.86
27 | AAACAAATGTATATGTGTACTTATTTTTTTGTATGT [XGTACX_site7134] | 9.66
28 | ATCAGTCGAGATGACAGTACACAGTAGCCAGGAAAT [XGTACX_site4932] | 9.64
29 | TATGTAGATAAATAAGCACACACCAAACATATAAAA [CACACA_site1182] | 10.3
30 | TATATATATTTAAAAAGTACAAAAAAAAAAAATGAA [XGTACX_site374] | 9.72
31 | TATATGTGACATGAATGTACCCAAATTATATAAGAA [XGTACX_site3937] | 9.6
32 | TATTCTTACACGTTTGCACACTAAAATATATATATA [CACACA_site435] | 9.84
33 | CATAGGAACATAAGTTGTACGCTATACATACAACAT [XGTACX_site1054] | 9.85
34 | ATTTAATATATTTATTGTACATATAAAATAAAAGAA [XGTACX_site2413] | 9.61
35 | TTAGTGTATTAATTCTCACACACTAAGAAAAAAAAA [CACACA_site3878] | 9.68
36 | ATAAATCCATGGGTAGTGCGCATTTTTTTTTTTTTT [GTGCAC_site9732] | 9.91
37 | ATAAAATGTATATGAATGCACTTGAAGTTTTTTTTT | 9.6
38 | TCTCCTTGTTCCTTTTTTTTAAAAAAAAACATTAAA [CACACA_negctrl_site679] | 9.59
39 | TAATAATAATACCAGCGTACATTTTTCTTTCCTACG [XGTACX_site4056] | 9.69
40 | TGAAAATTAATAAAAAGTACATAGTCAGATTTGTGA [XGTACX_site2450] | 9.83
41 | TCTGTGTTTTTGGGTACACACAAATAGCTTGTATAT [CACACA_site4002] | 9.92
42 | TTCCTTAATCAATATTGTACTTTTTATAAATTTAGT [XGTACX_site3678] | 9.7
43 | TATTTTTTCTTAAACACACACATATATATATATAAT [CACACA_site5567] | 9.95
44 | CTAAACAAAAAATAATGTACACATACATAAAAAATA [XGTACX_site1808] | 9.81
45 | CCCGAACAAACAAATAAACACACAAAAAAAAATATA [CACACA_site8540] | 9.86
